About 17,000 (4.4%) of roughly 390,000 compounds were called active. Inconclusive results, whose numbers are uncertain, are shown with a selection of clear calls. The call rests on the fitted dose curve; in most records, active means well fitted inhibition curve with a large enough effect; inconclusive means small, poorly fitted or top-dose-only effect; inactive means no such curve, though single readings can be large or run the other way. A potency beside an inconclusive call is a rough fit, not a confirmed value.
These molecules were tested against Lysine-specific demethylase 4A (Homo sapiens) (UniProt O75164) (assay: qHTS Assay for Inhibitors of JMJD2A-Tudor Domain). Conditions: AlphaScreen JMJD2A-Tudor / H3K4me3 peptide binding; series mostly up to 114 µM.
UniProt O75164, sequence (O75164 whole entry, looked up, the tested form may be a part): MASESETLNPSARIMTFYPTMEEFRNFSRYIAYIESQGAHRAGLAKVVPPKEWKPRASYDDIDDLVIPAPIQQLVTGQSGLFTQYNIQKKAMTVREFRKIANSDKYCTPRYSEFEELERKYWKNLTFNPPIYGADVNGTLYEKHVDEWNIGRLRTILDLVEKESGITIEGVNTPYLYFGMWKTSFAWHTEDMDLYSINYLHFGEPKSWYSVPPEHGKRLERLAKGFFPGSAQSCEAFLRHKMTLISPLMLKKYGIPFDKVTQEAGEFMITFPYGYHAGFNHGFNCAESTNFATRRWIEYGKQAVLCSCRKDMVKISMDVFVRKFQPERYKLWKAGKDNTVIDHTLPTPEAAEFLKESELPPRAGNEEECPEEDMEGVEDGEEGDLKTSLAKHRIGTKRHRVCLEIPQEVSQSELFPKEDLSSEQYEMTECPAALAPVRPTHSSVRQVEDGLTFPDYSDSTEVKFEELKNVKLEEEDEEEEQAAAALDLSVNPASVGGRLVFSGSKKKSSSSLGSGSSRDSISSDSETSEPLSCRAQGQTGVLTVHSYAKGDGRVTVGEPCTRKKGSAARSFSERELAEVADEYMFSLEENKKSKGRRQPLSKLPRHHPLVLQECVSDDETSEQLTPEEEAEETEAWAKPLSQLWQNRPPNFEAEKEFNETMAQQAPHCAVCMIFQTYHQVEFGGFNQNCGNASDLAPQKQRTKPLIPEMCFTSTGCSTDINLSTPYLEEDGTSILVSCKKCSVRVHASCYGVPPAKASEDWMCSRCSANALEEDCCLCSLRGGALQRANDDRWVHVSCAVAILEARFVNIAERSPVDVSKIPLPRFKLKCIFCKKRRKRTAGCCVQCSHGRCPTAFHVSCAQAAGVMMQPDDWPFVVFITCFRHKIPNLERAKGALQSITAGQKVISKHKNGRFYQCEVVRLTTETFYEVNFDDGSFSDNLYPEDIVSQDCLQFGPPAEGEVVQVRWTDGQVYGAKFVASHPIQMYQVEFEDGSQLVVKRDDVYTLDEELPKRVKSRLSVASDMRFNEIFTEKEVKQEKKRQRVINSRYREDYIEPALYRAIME
Further: nearly all actives have a fitted effect of over 50% in size.
Potency means the concentration at half of the fitted maximal effect; tags describe the fitted curve by direction and shape.

Potency, inconclusive:
COc1ccccc1C(=O)Nc1ccc2c(c1)C(=O)NC2=O 50.1 µM [inhibitor, partial curve]
COC(=O)[C@@]12CCCN1[C@H](c1ccc(SC3CCCCC3)cc1)[C@H]1C(=O)N(C)C(=O)[C@H]12 89.1 µM [inhibitor, partial curve]
CCOCCCNc1nc2cc(OC)c(OC)cc2c2nc(-c3ccccc3)nn12 22.4 µM [inhibitor, single point]
COc1ccc2[nH]c3c(c2c1)CCN1C(=O)C(CC(=O)NCc2cccc(C(F)(F)F)c2)C[C@H](C(=O)N(C(C)C)C(C)C)[C@@]31C (stereo partly specified) 39.8 µM [inhibitor, full curve]
C/C(CC(=O)Nc1cc(C)ccn1)=N\NC(=O)C(=O)NC(C)C 56.2 µM [inhibitor, partial curve, poor fit]
CCOc1ccc(N=Nc2c(=O)[nH]n3c(C)cc(C)nc23)cc1 12.6 µM [inhibitor, full curve, poor fit]
CC(Sc1ccc2nnc(-c3ccc(F)cc3)n2n1)C(=O)O (stereo unspecified) 112 µM [inhibitor, partial curve, poor fit]
COc1ccc(OC)c(NC(=O)Cc2cccs2)c1 79.4 µM [inhibitor, partial curve]
CCN(CC)C(=O)CSc1nc2ccsc2c(=O)n1CCCC(=O)NCCc1ccc(S(N)(=O)=O)cc1 11.2 µM [inhibitor, full curve]
Cc1ccc(OCc2nc(C#N)c(N3CCCC3)o2)cc1 3.16 µM [inhibitor, single point]
CC1(C)CC(c2nc(-c3ccc(Br)cc3)cs2)CCS1 (stereo unspecified) 25.1 µM [inhibitor, partial curve]
COc1cc(CN2CCC(C(=O)N3CCCC(C)C3)CC2)cc(Br)c1O (stereo unspecified) 1.12 µM [inhibitor, full curve, poor fit]
COc1ccc(-n2c(=O)c3c4c(sc3n3c(=S)[nH]nc23)COC(C(C)C)C4)cc1 (stereo unspecified) 56.2 µM [inhibitor, partial curve]
COc1ccc(C2C(C#N)=C(N)Oc3c2c(C)nn3-c2ccccc2)cc1Cn1nc(C)c([N+](=O)[O-])c1C (stereo unspecified) 56.2 µM [inhibitor, partial curve]
CCOC(=O)c1cc(-c2ccccc2)n(-c2cccc(C(=O)N(C)c3ccc(C)cc3)c2)c1C 20 µM [inhibitor, full curve]
C[C@H](CO)N1C[C@H](C)[C@@H](CN(C)C(=O)Nc2ccc(C(F)(F)F)cc2)Oc2c(NC(=O)Nc3ccc4c(c3)OCO4)cccc2C1=O 56.2 µM [inhibitor, partial curve]
Fc1ccc(N2CCN(Cc3cccn3-c3nnc(N4CCN(C5CCCCC5)CC4)s3)CC2)cc1 44.7 µM [inhibitor, partial curve]
Cc1nnc(SCc2ccccc2C#N)n1-c1ccccc1 70.8 µM [inhibitor, single point]
S=C(NCCOCCOCCNC(=S)Nc1ccccc1)Nc1ccccc1 10 µM [inhibitor, partial curve]
COc1ccc2c(c1)c(/C=C/c1cc[n+](C)cc1)cn2C 31.6 µM [inhibitor, single point]
COc1ccc(C(=O)c2ccc(OC)c3cccc(O)c23)cc1OC 79.4 µM [inhibitor, single point]
Cc1ccc(S(=O)(=O)N2CCN(C(=O)CSc3nc4ccccc4c(=O)[nH]3)CC2)c(C)c1 63.1 µM [inhibitor, single point]
Cc1cc(S(=O)(=O)N2CCCCC2)ccc1OCC(=O)Nc1ccccc1 100 µM [inhibitor, partial curve, poor fit]

Potency, inactive:
COc1cc2[nH]c(=O)n(CCCCCC(=O)N3CCN(c4ccc(Cl)cc4)CC3)c(=O)c2cc1OC
Cc1ccc(CNC(=O)CN(c2cc(C)cc(C)c2)S(=O)(=O)c2c(C)noc2C)cc1
CC(C)(C)OC(=O)N[C@@H](Cc1ccccc1)c1nnc(S(=O)(=O)Cc2cccc(F)c2)o1
CCC(=O)N1CCc2cc(S(=O)(=O)CCC(=O)Nc3cccc(C)n3)ccc21
COc1ccc(N2C(=S)N=C(Nc3ccccc3)C23CCCCC3)cc1
N#Cc1nc(Nc2ccc(Br)cc2)nc(NC2CCCC2)n1
Cc1c(NC(=O)c2ccc(Br)o2)cccc1-c1nc2ccccc2o1
CN1CN(C)c2cccc3cccc1c23
CN(CC(=O)Nc1ccc(F)c(F)c1F)C(=O)CCN1C(=O)C2CCCCC2C1=O (stereo unspecified)
c1ccc(Nc2nc(N3CCCC3)nc(N3CCOCC3)n2)cc1
CCc1ccccc1NC(=O)c1cc2c(Cl)nc3ccccc3c2s1
NCCCN(Cc1ccc(Cl)c(Cl)c1)c1ccc(Br)cn1
CCCCCSc1nncc(=O)[nH]1

Potency, active:
Cc1occc1C(=O)Nc1ccc(S(N)(=O)=O)cc1 22.4 µM
Cc1cccc(N2C(=O)C=CC2=O)c1 20 µM
COc1ccc(CNC(=O)CCNS(=O)(=O)c2ccc(Br)s2)cc1 79.4 µM
c1ccc(COc2ccc(OCCCCN3CCCC3)cc2)cc1 1.41 µM
O=C(/C(=N/N=C/c1ccc(O)c(O)c1O)c1ccccc1)c1ccccc1 35.5 µM
COc1ccc(NC(=O)C2CCN(C(=O)NC3CCCCC3)CC2)c(OC)c1 79.4 µM
COc1ccc(OC)c(CN2CCN(Cc3cc(OC)c(OC)c(OC)c3)CC2)c1 22.4 µM
CCOc1ccc(C2N(c3cc(C)on3)C(=O)C3CCCN32)cc1OC (stereo unspecified) 35.5 µM
CCn1c(C(c2ccccc2)c2ccccc2)n[nH]c1=S 31.6 µM
c1ccc(N=Nc2ccc3cccccc2-3)cc1 3.98 µM
